Some of the results follow. The list includes weakly bound sequences.

This assay has as its target T1, MBP-FoxP3dN (UniProt Q99JB6).
T1 sequence: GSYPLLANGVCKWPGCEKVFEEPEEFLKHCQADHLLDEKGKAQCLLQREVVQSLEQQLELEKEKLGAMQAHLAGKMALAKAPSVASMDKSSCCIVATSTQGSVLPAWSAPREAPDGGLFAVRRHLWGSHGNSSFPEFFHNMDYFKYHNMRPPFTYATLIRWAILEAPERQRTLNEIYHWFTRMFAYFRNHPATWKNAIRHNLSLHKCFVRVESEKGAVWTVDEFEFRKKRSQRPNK
The assay can be described thus: PD-seq (MBP pull-down with sequencing). The following applies: 20 mM Tris-HCl pH 7.5, 100 mM NaCl, 1.5 mM MgCl2, 0.4 uM protein, 0.1 uM dsDNA library, 30 min, room temperature, amylose pull-down; high values mean tight binding; double strand, one strand shown.
For the sequence “GATGATTGTTCTCCCAGCTGATGAATTCTCACTATCGAGTAAACAAATTTTCCTAATCTTTCTGTTCAAGCGCCATCTAC”, the binding signal (RPM ratio (pull-down/input)) was 0.378.

For “GATGATTGTTCTCCCAGCTGATGAATTTTAAGCATCGAGTAAACAAATTTTCCTAATCTTTCTGTTCAAGCGCCATCTAC”, the binding signal (RPM ratio (pull-down/input)) was found to be 0.881.

For “GATGATTGTTCTCCCAGCTGATGAATTGATACACTCGAGTAAACAAATTTTCCTAATCTTTCTGTTCAAGCGCCATCTAC”, the binding signal (RPM ratio (pull-down/input)) stood at 1.99.

With “GATGATTGTTCTCCCAGCTGATGAATTCACTAGGTCGAGTAAACAAATTTTCCTAATCTTTCTGTTCAAGCGCCATCTAC”, the binding signal (RPM ratio (pull-down/input)) turned out to be 0.236.

For the sequence “GATGATTGTTCTCCCAGCTGATGAATTGCCTCCATCGAGTAAACAAATTTTCCTAATCTTTCTGTTCAAGCGCCATCTAC”, the binding signal (RPM ratio (pull-down/input)) is 1.28. With “GATGATTGTTCTCCCAGCTGATGAATTACCTGCTTCGAGTAAACAAATTTTCCTAATCTTTCTGTTCAAGCGCCATCTAC”, the binding signal (RPM ratio (pull-down/input)) came to 0.326. The figure for “GATGATTGTTCTCCCAGCTGATGAATTGGGGATCTCGAGTAAACAAATTTTCCTAATCTTTCTGTTCAAGCGCCATCTAC” is 0.366. The figure for “GATGATTGTTCTCCCAGCTGATGAATTAGACTCTTCGAGTAAACAAATTTTCCTAATCTTTCTGTTCAAGCGCCATCTAC” is 0.49; for “GATGATTGTTCTCCCAGCTGATGAATTTTGCATGTCGAGTAAACAAATTTTCCTAATCTTTCTGTTCAAGCGCCATCTAC” it is 6.69; for “GATGATTGTTCTCCCAGCTGATGAATTTACCTTCTCGAGTAAACAAATTTTCCTAATCTTTCTGTTCAAGCGCCATCTAC” it is 0.534.

With “GATGATTGTTCTCCCAGCTGATGAATTAAACGCGTCGAGTAAACAAATTTTCCTAATCTTTCTGTTCAAGCGCCATCTAC”, the binding signal (RPM ratio (pull-down/input)) was 0.609.

For the sequence “GATGATTGTTCTCCCAGCTGATGAATTGACCGTGTCGAGTAAACAAATTTTCCTAATCTTTCTGTTCAAGCGCCATCTAC”, the binding signal (RPM ratio (pull-down/input)) stood at 0.368. For “GATGATTGTTCTCCCAGCTGATGAATTAAAATTGTCGAGTAAACAAATTTTCCTAATCTTTCTGTTCAAGCGCCATCTAC” the value was 0.481; for “GATGATTGTTCTCCCAGCTGATGAATTTGGTACCTCGAGTAAACAAATTTTCCTAATCTTTCTGTTCAAGCGCCATCTAC”, 0.89.

As to “GATGATTGTTCTCCCAGCTGATGAATTAGCAAACTCGAGTAAACAAATTTTCCTAATCTTTCTGTTCAAGCGCCATCTAC”, the binding signal (RPM ratio (pull-down/input)) came out at 0.415. For “GATGATTGTTCTCCCAGCTGATGAATTGCGGAAATCGAGTAAACAAATTTTCCTAATCTTTCTGTTCAAGCGCCATCTAC” the value was 0.688.

As for “GATGATTGTTCTCCCAGCTGATGAATTGTCATGATCGAGTAAACAAATTTTCCTAATCTTTCTGTTCAAGCGCCATCTAC”, the binding signal (RPM ratio (pull-down/input)) was 0.567. As for “GATGATTGTTCTCCCAGCTGATGAATTACGATTCTCGAGTAAACAAATTTTCCTAATCTTTCTGTTCAAGCGCCATCTAC”, the binding signal (RPM ratio (pull-down/input)) came out at 0.89. As for “GATGATTGTTCTCCCAGCTGATGAATTCAGTTTCTCGAGTAAACAAATTTTCCTAATCTTTCTGTTCAAGCGCCATCTAC”, the binding signal (RPM ratio (pull-down/input)) amounted to 1.41. Turning to “GATGATTGTTCTCCCAGCTGATGAATTGTCTAAATCGAGTAAACAAATTTTCCTAATCTTTCTGTTCAAGCGCCATCTAC”, the binding signal (RPM ratio (pull-down/input)) came out at 0.383.

For “GATGATTGTTCTCCCAGCTGATGAATTGGACCGATCGAGTAAACAAATTTTCCTAATCTTTCTGTTCAAGCGCCATCTAC”, the binding signal (RPM ratio (pull-down/input)) was 0.184. “GATGATTGTTCTCCCAGCTGATGAATTGGCGGGATCGAGTAAACAAATTTTCCTAATCTTTCTGTTCAAGCGCCATCTAC”: the binding signal (RPM ratio (pull-down/input)) was 0.323. “GATGATTGTTCTCCCAGCTGATGAATTGACCACCTCGAGTAAACAAATTTTCCTAATCTTTCTGTTCAAGCGCCATCTAC”: the binding signal (RPM ratio (pull-down/input)) stood at 0.312. The figure for “GATGATTGTTCTCCCAGCTGATGAATTTTACGCTTCGAGTAAACAAATTTTCCTAATCTTTCTGTTCAAGCGCCATCTAC” is 0.414; for “GATGATTGTTCTCCCAGCTGATGAATTCTTCCGATCGAGTAAACAAATTTTCCTAATCTTTCTGTTCAAGCGCCATCTAC” it is 0.208. For “GATGATTGTTCTCCCAGCTGATGAATTTAAAAGGTCGAGTAAACAAATTTTCCTAATCTTTCTGTTCAAGCGCCATCTAC” the value was 0.203.

In the case of “GATGATTGTTCTCCCAGCTGATGAATTTCAGCAGTCGAGTAAACAAATTTTCCTAATCTTTCTGTTCAAGCGCCATCTAC”, the binding signal (RPM ratio (pull-down/input)) was 0.328. The figure for “GATGATTGTTCTCCCAGCTGATGAATTCGATTCGTCGAGTAAACAAATTTTCCTAATCTTTCTGTTCAAGCGCCATCTAC” is 1.09; for “GATGATTGTTCTCCCAGCTGATGAATTCCTGCGGTCGAGTAAACAAATTTTCCTAATCTTTCTGTTCAAGCGCCATCTAC” it is 0.244; for “GATGATTGTTCTCCCAGCTGATGAATTCAGTATGTCGAGTAAACAAATTTTCCTAATCTTTCTGTTCAAGCGCCATCTAC” it is 2.28.

Turning to “GATGATTGTTCTCCCAGCTGATGAATTCACGTTTTCGAGTAAACAAATTTTCCTAATCTTTCTGTTCAAGCGCCATCTAC”, the binding signal (RPM ratio (pull-down/input)) was 0.512. For “GATGATTGTTCTCCCAGCTGATGAATTAGCAAGGTCGAGTAAACAAATTTTCCTAATCTTTCTGTTCAAGCGCCATCTAC” the value was 0.338; for “GATGATTGTTCTCCCAGCTGATGAATTAAGGTCATCGAGTAAACAAATTTTCCTAATCTTTCTGTTCAAGCGCCATCTAC”, 0.472. The figure for “GATGATTGTTCTCCCAGCTGATGAATTAAAATCCTCGAGTAAACAAATTTTCCTAATCTTTCTGTTCAAGCGCCATCTAC” is 0.24; for “GATGATTGTTCTCCCAGCTGATGAATTATAGACTTCGAGTAAACAAATTTTCCTAATCTTTCTGTTCAAGCGCCATCTAC” it is 0.576. The figure for “GATGATTGTTCTCCCAGCTGATGAATTTCCAGGCTCGAGTAAACAAATTTTCCTAATCTTTCTGTTCAAGCGCCATCTAC” is 0.243. “GATGATTGTTCTCCCAGCTGATGAATTCGAGCGATCGAGTAAACAAATTTTCCTAATCTTTCTGTTCAAGCGCCATCTAC”: the binding signal (RPM ratio (pull-down/input)) stood at 0.416. The figure for “GATGATTGTTCTCCCAGCTGATGAATTTCCCAAGTCGAGTAAACAAATTTTCCTAATCTTTCTGTTCAAGCGCCATCTAC” is 0.151; for “GATGATTGTTCTCCCAGCTGATGAATTGTAACAATCGAGTAAACAAATTTTCCTAATCTTTCTGTTCAAGCGCCATCTAC” it is 2.9; for “GATGATTGTTCTCCCAGCTGATGAATTCTTGGGTTCGAGTAAACAAATTTTCCTAATCTTTCTGTTCAAGCGCCATCTAC” it is 0.281.

Regarding “GATGATTGTTCTCCCAGCTGATGAATTCCCAAGTTCGAGTAAACAAATTTTCCTAATCTTTCTGTTCAAGCGCCATCTAC”, the binding signal (RPM ratio (pull-down/input)) is 0.165. Regarding “GATGATTGTTCTCCCAGCTGATGAATTACGCAATTCGAGTAAACAAATTTTCCTAATCTTTCTGTTCAAGCGCCATCTAC”, the binding signal (RPM ratio (pull-down/input)) turned out to be 4.44. For “GATGATTGTTCTCCCAGCTGATGAATTTGCCTATTCGAGTAAACAAATTTTCCTAATCTTTCTGTTCAAGCGCCATCTAC” the value was 1.39. For “GATGATTGTTCTCCCAGCTGATGAATTTTCTGTTTCGAGTAAACAAATTTTCCTAATCTTTCTGTTCAAGCGCCATCTAC” the value was 0.343; for “GATGATTGTTCTCCCAGCTGATGAATTTTGAGACTCGAGTAAACAAATTTTCCTAATCTTTCTGTTCAAGCGCCATCTAC”, 0.962. On to “GATGATTGTTCTCCCAGCTGATGAATTTTTTATTTCGAGTAAACAAATTTTCCTAATCTTTCTGTTCAAGCGCCATCTAC”, for which the binding signal (RPM ratio (pull-down/input)) came out at 0.301.

Regarding “GATGATTGTTCTCCCAGCTGATGAATTGCCCAGTTCGAGTAAACAAATTTTCCTAATCTTTCTGTTCAAGCGCCATCTAC”, the binding signal (RPM ratio (pull-down/input)) amounted to 0.41. For the sequence “GATGATTGTTCTCCCAGCTGATGAATTTCAATGCTCGAGTAAACAAATTTTCCTAATCTTTCTGTTCAAGCGCCATCTAC”, the binding signal (RPM ratio (pull-down/input)) came to 0.602. “GATGATTGTTCTCCCAGCTGATGAATTGTCGAGCTCGAGTAAACAAATTTTCCTAATCTTTCTGTTCAAGCGCCATCTAC”: the binding signal (RPM ratio (pull-down/input)) is 0.25. For the sequence “GATGATTGTTCTCCCAGCTGATGAATTATGGCTGTCGAGTAAACAAATTTTCCTAATCTTTCTGTTCAAGCGCCATCTAC”, the binding signal (RPM ratio (pull-down/input)) came out at 0.612. For “GATGATTGTTCTCCCAGCTGATGAATTCAAAGGGTCGAGTAAACAAATTTTCCTAATCTTTCTGTTCAAGCGCCATCTAC” the value was 0.167; for “GATGATTGTTCTCCCAGCTGATGAATTCTCGTCTTCGAGTAAACAAATTTTCCTAATCTTTCTGTTCAAGCGCCATCTAC”, 0.379; for “GATGATTGTTCTCCCAGCTGATGAATTAAATTATTCGAGTAAACAAATTTTCCTAATCTTTCTGTTCAAGCGCCATCTAC”, 1.19.

“GATGATTGTTCTCCCAGCTGATGAATTCGGCTCATCGAGTAAACAAATTTTCCTAATCTTTCTGTTCAAGCGCCATCTAC”: the binding signal (RPM ratio (pull-down/input)) amounted to 0.404.

Turning to “GATGATTGTTCTCCCAGCTGATGAATTACACAGCTCGAGTAAACAAATTTTCCTAATCTTTCTGTTCAAGCGCCATCTAC”, the binding signal (RPM ratio (pull-down/input)) is 0.443. On to “GATGATTGTTCTCCCAGCTGATGAATTGTGAGCGTCGAGTAAACAAATTTTCCTAATCTTTCTGTTCAAGCGCCATCTAC”, for which the binding signal (RPM ratio (pull-down/input)) was determined as 0.981. For “GATGATTGTTCTCCCAGCTGATGAATTCCCCGCGTCGAGTAAACAAATTTTCCTAATCTTTCTGTTCAAGCGCCATCTAC” the value was 0.354; for “GATGATTGTTCTCCCAGCTGATGAATTCCTGCCATCGAGTAAACAAATTTTCCTAATCTTTCTGTTCAAGCGCCATCTAC”, 1.54; for “GATGATTGTTCTCCCAGCTGATGAATTTCGGCGATCGAGTAAACAAATTTTCCTAATCTTTCTGTTCAAGCGCCATCTAC”, 0.503. The figure for “GATGATTGTTCTCCCAGCTGATGAATTTCCTGGGTCGAGTAAACAAATTTTCCTAATCTTTCTGTTCAAGCGCCATCTAC” is 0.169. As to “GATGATTGTTCTCCCAGCTGATGAATTGGGAAGTTCGAGTAAACAAATTTTCCTAATCTTTCTGTTCAAGCGCCATCTAC”, the binding signal (RPM ratio (pull-down/input)) stood at 0.246.

“GATGATTGTTCTCCCAGCTGATGAATTACAGTACTCGAGTAAACAAATTTTCCTAATCTTTCTGTTCAAGCGCCATCTAC”: the binding signal (RPM ratio (pull-down/input)) was determined as 0.485. For “GATGATTGTTCTCCCAGCTGATGAATTATTACGCTCGAGTAAACAAATTTTCCTAATCTTTCTGTTCAAGCGCCATCTAC” the value was 0.426.

The values above are taken from paper PMC12820563.
